Consider 78 sequences from the supplement of paper PMC10126150.

The test system of this data set is ATP. Put plainly: switch fluorescence ratio, 500 uM ATP over buffer (Cy3 cluster intensity, sum of 5 cycles each) (fold (ratio)); higher = stronger signal-on switching upon ATP binding; sequences stand for … in TCGTCGGCAGCGTCAGATGTGTATAAGAGACAGTTTTTTTTTTTTTTTTTTTTTTTTT…TC. The note with it: aptamer strand: ATP DNA aptamer (quencher-CACCTGGGGGAGTATTGCGGAGGAAGG + anchor), 100 nM annealed; ATP concentration: 500 uM; one replicate. The method, boiled down: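 For every switch-domain sequence, the fluorescence ratio is the mean of per-cluster values, each being summed target-cycle Cy3 intensity over summed buffer-cycle Cy3 intensity. Clusters outside 100-1000 RFU were excluded. On a modified Illumina MiSeq flow-cell, the Cy3-labelled switching-strand clusters were annealed to 100 nM quencher-labelled ATP aptamer, imaged in selection buffer and then after 15 min with 500 uM ATP at 22 °C. Five such cycles were run, with NaOH stripping and re-annealing between them.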

Values marked as one replicate rest on one cluster of the flow cell; about a third of the high ones do not repeat.
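Note: ATP exposure 15 min at 22 °C before imaging.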

On to ATACGATGG, for which the switch fluorescence ratio is 0.916.
Take GAAACAAGTC: the switch fluorescence ratio stood at 1.1.
Regarding GCACGGCGCT, the switch fluorescence ratio turned out to be 1.07.
Regarding CTGGTGTATA, the switch fluorescence ratio is 1.06.
Regarding CTTAGTTTTA, the switch fluorescence ratio is 1.01.
As to TCGTTGGCCC, the switch fluorescence ratio turned out to be 0.996.
As for CAAGTAAGCA, the switch fluorescence ratio was 1.03.
As for TGCTTAGGAT, the switch fluorescence ratio amounted to 0.985.
To CGCTCTGGCC belongs 1.02; to TCATTTGTAA, 0.969; to GGACGCAAGA, 3.78.
Turning to GGTGTTACAG, the switch fluorescence ratio stood at 1.07.
On to AATAGGAAAA, for which the switch fluorescence ratio stood at 0.99.
Next, TAGCGGTTCA: 1; CGTACCGTTC: 1.02; TTGGGGACAA: 1.07.
On to ATTATACTAC, for which the switch fluorescence ratio came out at 1.04.
As to ACATAATTGT, the switch fluorescence ratio worked out at 1.
In the case of ACGCGCTCGG, the switch fluorescence ratio came to 1.05.
Consider TCACTAGCTT, for which the switch fluorescence ratio was found to be 0.97.
For TGACCGTTCG, the switch fluorescence ratio turned out to be 0.982.
To ACGTAGTTCT belongs 0.987; to AGAAGACTGT, 0.977.
Consider TAGAAGAATT, for which the switch fluorescence ratio was 0.982.
As to AAGGCTAGTG, the switch fluorescence ratio was determined as 0.98.
Regarding CGAGCTTCGA, the switch fluorescence ratio came out at 0.986.
As to GACGTATC, the switch fluorescence ratio came to 1.05.
Next, TTACGGTGAT: 1.02.
ATGCATTGTG: the switch fluorescence ratio was found to be 0.971.
To ACGCCCATTG belongs 1.17; to AGGAAGGAGC, 1.03; to AGGGTGAC, 0.986.
On to ATACGTTTCT, for which the switch fluorescence ratio is 1.03.
To GCGATCTTCG belongs 0.991.
As to TGCTGGGCAG, the switch fluorescence ratio worked out at 0.979.
Regarding AGACCAGCCC, the switch fluorescence ratio amounted to 1.03.
To TGCGACCCGT belongs 1.07; to AAGTCGGAGG, 0.99.
Next, AACCCACGCT: 1.34.
To ATACCTGAAG belongs 1.07; to CGTTATTATG, 0.991; to GGCCGACAGA, 1.
In the case of TGACTGACGG, the switch fluorescence ratio was 1.09.
Take TAGGAACTGT: the switch fluorescence ratio amounted to 0.904.
To GTGGGGCATG belongs 0.978; to TCCGAAAAGT, 0.99; to AGCAAGGGTC, 1.38.
For the sequence TATACCCTCC, the switch fluorescence ratio came out at 1.48.
Next, TGCGGTAAAC: 1.07.
Next, ATTCTGGGG: 0.974; CCGTAAAGCC: 1.47; GCCTGTTACA: 0.982.
Regarding AAAAAGGA, the switch fluorescence ratio was 0.98.
Next, CAAATCGCCA: 1.01; AGTCTAGGGA: 1; TATTTTT: 0.987.
Next, TTCTGGCGCT: 1.06.
To TTTTGCCTCT belongs 0.973.
As for ATAACGGTTC, the switch fluorescence ratio amounted to 1.01.
As for ATGCTGCGTT, the switch fluorescence ratio amounted to 1.01.
ATCGTTTACT: the switch fluorescence ratio was 1.02.
To AGGAAAGATG belongs 0.951; to GTCACAGGTG, 5.59; to AGGAAGTCAC, 1.11.
Next, AGGCCGGTCG: 1.04.
Next, TATCTATATC: 1.02.
As to GATGTAAGTA, the switch fluorescence ratio came out at 1.
Regarding TTAAGTAAG, the switch fluorescence ratio stood at 1.03.
To TTAATATTGC belongs 1.03; to TCTCGTCTGT, 0.987; to TGCACTTCTT, 0.955.
For TGATGCCTGT, the switch fluorescence ratio was determined as 0.979.
Next, ATCCTCCTTT: 1.07; GATGGATCAA: 1.01; AGGGCCCATT: 1.02.
Next, CGATCGTGGC: 1.07; CTGGGAAGCT: 1.04; CTATATGCAA: 1.44.
